The source of these data is article PMC4336329 (PLoS ONE, 2015).

Screen size: about 310,000 compounds; about 14,000 (4.5%) showed an effect of 50% or more. The effect is printed as a negative number. The list shows a part of the results. Where a SMILES comes first, the peptide text is derived from it. The star is where a group is joined. Cbz = O=C(OCc1ccccc1)*; OtBu = CC(C)(C)O*; tBu = CC(C)(C)*
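Further: peak tail current of the secondary pulse compared with the same well before compound.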

human ether-à-go-go-related gene (hERG) potassium channel, sequence (Q12809 whole entry, looked up): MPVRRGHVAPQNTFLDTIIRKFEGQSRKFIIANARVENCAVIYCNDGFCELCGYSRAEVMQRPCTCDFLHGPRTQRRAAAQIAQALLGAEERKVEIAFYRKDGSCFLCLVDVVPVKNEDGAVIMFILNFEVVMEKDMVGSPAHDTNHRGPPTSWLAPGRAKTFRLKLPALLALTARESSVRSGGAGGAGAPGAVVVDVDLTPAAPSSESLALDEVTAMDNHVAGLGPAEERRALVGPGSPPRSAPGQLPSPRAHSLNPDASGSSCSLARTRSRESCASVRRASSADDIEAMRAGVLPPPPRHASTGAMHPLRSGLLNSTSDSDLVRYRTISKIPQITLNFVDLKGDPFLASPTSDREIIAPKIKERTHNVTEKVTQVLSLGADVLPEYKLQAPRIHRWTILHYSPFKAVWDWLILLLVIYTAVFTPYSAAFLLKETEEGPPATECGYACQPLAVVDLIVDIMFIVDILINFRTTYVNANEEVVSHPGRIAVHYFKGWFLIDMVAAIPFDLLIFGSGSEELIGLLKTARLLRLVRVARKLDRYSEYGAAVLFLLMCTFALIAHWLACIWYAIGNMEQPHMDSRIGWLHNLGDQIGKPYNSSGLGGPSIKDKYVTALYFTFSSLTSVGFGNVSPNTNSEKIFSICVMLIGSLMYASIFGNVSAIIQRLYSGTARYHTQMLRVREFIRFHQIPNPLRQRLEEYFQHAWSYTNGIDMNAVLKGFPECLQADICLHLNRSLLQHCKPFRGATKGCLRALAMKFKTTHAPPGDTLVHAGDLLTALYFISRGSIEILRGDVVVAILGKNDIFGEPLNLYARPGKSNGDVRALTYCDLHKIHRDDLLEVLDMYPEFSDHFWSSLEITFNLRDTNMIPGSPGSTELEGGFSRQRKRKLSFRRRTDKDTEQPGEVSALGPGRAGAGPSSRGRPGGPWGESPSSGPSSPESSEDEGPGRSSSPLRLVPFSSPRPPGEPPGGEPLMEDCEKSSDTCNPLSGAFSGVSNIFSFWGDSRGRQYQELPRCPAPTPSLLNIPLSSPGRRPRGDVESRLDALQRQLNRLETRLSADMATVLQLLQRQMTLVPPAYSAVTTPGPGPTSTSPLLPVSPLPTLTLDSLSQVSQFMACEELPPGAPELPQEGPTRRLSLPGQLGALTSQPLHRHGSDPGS

The experiment concerns the target human ether-à-go-go-related gene (hERG) potassium channel (human, UniProt Q12809). Description: primary screen, population patch clamp on CHO cells stably expressing hERG.
Regarding `Cl.N[C@@H](Cc1c[nH]c2ccccc12)c1nnc(SCc2ccccc2F)o1`, the “hERG current change (%, negative = inhibition) at 10uM” value is reported as -19.9%. `O=c1c(Cc2ccc(F)cc2)c(O)ccn1CC1CCCO1` (stereo not drawn): the “hERG current change (%, negative = inhibition) at 10uM” value came out at 62.1%.

As for `COc1ccc(NC(=O)Cc2cccc3ccccc23)cc1`, the “hERG current change (%, negative = inhibition) at 10uM” value was 9.28%.

On to `Cc1ccnc2c(N3C(=O)C4C5c6ccccc6C(c6ccccc65)C4C3=O)cccc12` (stereo not drawn), for which the “hERG current change (%, negative = inhibition) at 10uM” value is reported as -2.78%.

On to `O=S(=O)(c1ccccc1)c1nc(-c2ccco2)oc1NCCN1CCOCC1`, for which the “hERG current change (%, negative = inhibition) at 10uM” value was -32.2%. `Cc1onc(-c2ccccc2Cl)c1-c1nc(-c2ccncc2)no1`: the “hERG current change (%, negative = inhibition) at 10uM” value was -10.9%. The result for `O=C(Nc1ccc(F)c(Cl)c1)N1CCCCCC1` reads 6.06%; that for `O=C(O)c1cccc(S(=O)(=O)N(Cc2ccccc2)c2ccccc2Cl)c1`, 13.8%.

Regarding `CN(C)C(=O)c1cn(-c2ccccc2)c(=O)c2ccccc12`, the “hERG current change (%, negative = inhibition) at 10uM” value stood at 16.1%. `CCC(NC(=O)c1ccccc1NC(=O)c1ccc(C)cc1)C(=O)O` (stereo not drawn): the “hERG current change (%, negative = inhibition) at 10uM” value is recorded as -3.27%. Consider `CCN(CC)S(=O)(=O)c1cc(NC(=O)CCCOc2ccc(C(C)=O)cc2)ccc1C`, for which the “hERG current change (%, negative = inhibition) at 10uM” value is given as -29.9%. To `NC(=O)c1ccccc1NC(=O)CC1(CC(=O)O)CCCC1` belongs 11.7%; to `Cc1ccc(-c2nc(NCc3cccnc3)c3ccccc3n2)cc1`, 0.555%.

In the case of `COC(=O)c1c(NC(=O)COC(=O)CCNS(=O)(=O)c2ccccc2)sc(C)c1C`, the “hERG current change (%, negative = inhibition) at 10uM” value is 14.7%. Consider `Nc1nc(SCC(=O)c2cccc([N+](=O)[O-])c2)n[nH]1`, for which the “hERG current change (%, negative = inhibition) at 10uM” value was -7.48%. The result for `C=C(C)CSc1cc(C)c(C#N)c2nc3ccccc3n12` reads -31.5%. To `CCOC(=O)c1c(N)n(Cc2ccco2)c2nc3ccccc3nc12` belongs -61.9%; to `CC1CC2=C(NC(=S)NC2c2ccc(F)cc2)/C(=C/c2ccc(F)cc2)C1` (stereo not drawn), -3.78%. The result for `CC12CCC(C(=O)N3CCCCCC3)(OC1=O)C2(C)C` (stereo not drawn) reads 13.1%; that for `Cc1cccc(C)c1NC(=O)CNC(=O)CCNC(=O)c1ccco1`, 2.84%. `CC(NC(=O)OCc1ccccc1)C(=O)NCC(=O)NC(Cc1ccc(OC(C)(C)C)cc1)C(=O)OC(C)(C)C` (stereo not drawn) (Cbz-Ala-Gly-Tyr(tBu)-OtBu; configuration not given here): the “hERG current change (%, negative = inhibition) at 10uM” value is given as -8.78%. The result for `O=C(CSc1nnc(CNC(=O)c2c(F)cccc2F)o1)NCc1ccccc1` reads 9.56%; that for `COC(=O)c1ccccc1NC(=O)Nc1nnc(N2CCCCC2C)s1` (stereo not drawn), 5%; that for `CCOC(=O)CCC(NC(=O)c1ccc(NCN2C(=O)CCC2=O)cc1)C(=O)OCC` (stereo not drawn), 7.22%. To `COc1cc(/C=C/c2ccc3cccc(O)c3n2)cc(OC)c1OC` belongs 14.6%. As to `Cc1cc[n+](Cc2ccc([N+](=O)[O-])cc2)cc1.[Br-]`, the “hERG current change (%, negative = inhibition) at 10uM” value is reported as -3.66%.

Turning to `Cc1cnc(C(=O)OCC(=O)c2ccc(F)cc2)cn1`, the “hERG current change (%, negative = inhibition) at 10uM” value worked out at 8.42%. Turning to `O=C(Cn1nnc2ccccc21)C1CC1`, the “hERG current change (%, negative = inhibition) at 10uM” value amounted to 3.03%.

As to `O=C(c1c(F)cccc1Cl)N1CCN(c2ccccn2)CC1`, the “hERG current change (%, negative = inhibition) at 10uM” value came out at 4.41%. To `O=C(CCCCCN1C(=O)[C@@H]2Cc3ccccc3CN2C1=O)NCCc1ccccc1` belongs -35.7%; to `Cc1ccc(N(Cc2ccccc2)C(=O)c2ccc(F)c(S(=O)(=O)N3CCOCC3)c2)cc1`, -82.7%; to `Nc1cc(=O)nc(SCC(=O)N(C2CCCCC2)C2CCCCC2)n1-c1ccccc1`, 9.2%. Turning to `COCCOC(=O)C1=C(C)NC2(O)c3ccccc3C(=O)C12O` (stereo not drawn), the “hERG current change (%, negative = inhibition) at 10uM” value came to 24.4%. Turning to `Cc1ccc(C)c(OCc2cc(C(=O)NC3CCN(Cc4ccccc4)CC3)no2)c1`, the “hERG current change (%, negative = inhibition) at 10uM” value is listed as -41.1%.

For the compound `Cc1cc2nnc(SCC(=O)NCc3ccco3)n2c2ccccc12`, the “hERG current change (%, negative = inhibition) at 10uM” value is 14.4%. The result for `O=C(NCc1ccncc1)c1cc(C(=O)C2CC2)c[nH]1` reads 21.6%; that for `N#C/C(=C\c1cccnc1)c1ccccc1[N+](=O)[O-]`, 4.04%. In the case of `COc1ccc(C2(O)CCN(C(=O)Cc3cccnc3)CC2)cc1`, the “hERG current change (%, negative = inhibition) at 10uM” value is -12.6%. To `COc1ccc(-c2csc(NC(=O)COc3ccc(N(C)S(=O)(=O)c4ccc(C)cc4)cc3)n2)cc1` belongs 3.24%; to `CCc1ccc(C(=O)OCC(=O)c2c(N)n(CC(C)C)c(=O)n(C)c2=O)cc1`, -0.249%.

Turning to `Cc1ccc(CNC(=O)c2ccc(NC(=O)CCS(=O)(=O)c3cccs3)cc2)cc1`, the “hERG current change (%, negative = inhibition) at 10uM” value worked out at 9.58%. The result for `Cl.O=C(CN1CCCC1)NCC1(c2ccccc2)CCOCC1` reads 6.69%. Take `O=C(/C=C/c1ccccc1)NCCC1=CCCCC1`: the “hERG current change (%, negative = inhibition) at 10uM” value was determined as 6.81%.

In the case of `COc1ccc(NC2=CC(=O)N(C)C2=O)cc1`, the “hERG current change (%, negative = inhibition) at 10uM” value is on record as 1.61%. To `O=C(c1cn(-c2ccccc2)nc1-c1ccc(Br)cc1)N1CCOCC1` belongs -5.61%; to `COc1ccc(-c2cc(C(F)(F)F)nc(N3CCN(C)CC3)n2)cc1`, 3.53%. With `S=C(NCc1ccco1)N/N=C/c1cccnc1`, the “hERG current change (%, negative = inhibition) at 10uM” value is -4.64%. As for `COc1ccc(/C=C(/C(=O)Nc2ccccc2C(=O)NC(C)C)c2ccccc2)cc1`, the “hERG current change (%, negative = inhibition) at 10uM” value is recorded as 9.52%. For `CC1CC(C)CN(S(=O)(=O)c2ccc(C(=O)N3CCCC3)cc2)C1` (stereo not drawn), the “hERG current change (%, negative = inhibition) at 10uM” value was -25.2%. Consider `Cc1ccc(NC(=O)CCNS(=O)(=O)c2cccc3nonc23)cc1Cl`, for which the “hERG current change (%, negative = inhibition) at 10uM” value is given as 5.41%. In the case of `O=C(N/N=C/C=C/c1ccccc1)c1cc(C2CC2)[nH]n1`, the “hERG current change (%, negative = inhibition) at 10uM” value is on record as -15%.
